Test results as given in PubChem BioAssay AID1508642 (National Center for Advancing Translational Sciences (NCATS), 2021).
Hit rate of the full screen: of about 43,000 compounds, about 200 (0.47%) were called active. Roughly 12% stayed inconclusive and do not appear here. Calls follow the shape of the dose curve; as a rule, active = well fitted cell-killing curve with a large enough effect; inconclusive = small, poorly fitted or top-dose-only effect, or effect the other way; inactive = flat fitted curve, though single readings scatter. The list shows a part of the results.

experiment: Cell viability qHTS assay in S16 Pmp22-F2sN cells; conditions: S16 Pmp22-F2sN Schwann cells (luciferase reporters placed in the Pmp22 gene) viability, CellTiter-Glo, 24 h; series mostly up to 57.5 µM; activity change, negative = cytotoxicity: at the top concentration; also: nearly all actives have a fitted effect of over 65% in size
How it was run: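 CellTiter-Glo counter-screen, qHTS, 1536-well. Cells: S16(c9) Pmp22-F2sN, 500-1,000/well in DMEM + 10% FBS. Cpd 23 nL pin transfer, 24 h, 37C/5% CO2. Read: luminescence, CCD imager.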
% is scaled to controls: 0 for no effect and ±100 for the full control effect.

SMILES | activity change, negative = cytotoxicity
O=C(O)CCc1ccc(-c2ccc(Br)cc2)n1-c1ccccc1O | inactive: 8.69%
CCOCCCNC(=O)c1ccc(-c2nc(CS(=O)(=O)c3ccccc3)c(C)o2)cc1 | inactive: -22.6%
CNC(=O)C1CCCN(c2nnc(C)c3c(C)n(-c4ccccc4)nc23)C1 (configuration not stated) | inactive: 0.631%
O=C(Nc1ccc(F)c(Cl)c1)c1cc(S(=O)(=O)NCc2ccc3c(c2)OCO3)ccc1F | inactive: -6.37%
Cc1cc2nc(-c3ccc(NC(=O)c4ccc(OCC(C)C)cc4)cc3)oc2cc1C | inactive: 0.313%
CCOc1cccc2sc(N(Cc3cccnc3)C(C)=O)nc12 | inactive: -15.8%
CCCCN(CC)CCNC(=O)Cn1cnc2sc(C)c(S(=O)(=O)N3CCN(c4ccccc4OC)CC3)c2c1=O | inactive: -2.4%
CC(C)Cc1nn2cc(-c3cccc(Br)c3)nc2s1 | inactive: -4.03%
CCOc1ccc(N2CC(c3nc4ccccc4n3CCOc3ccc(OC)cc3)CC2=O)cc1 (configuration not stated) | inactive: -11.1%
CCS(=O)(=O)NCCc1sc2nc(-c3ccc(OC)cc3)nn2c1C | inactive: -28.1%
O=C(CNS(=O)(=O)c1ccc(Br)s1)N1CCN(c2ccc(F)cc2)CC1 | inactive: -0.403%
COCCNS(=O)(=O)c1cc(-c2nn3c(C)nnc3c3ccccc23)ccc1C | inactive: 1.72%
Cc1ccc(NC(=O)N2CCN(C(=O)c3nsc4ccccc34)CC2)cc1C | inactive: 0.044%
CC(C)(C)c1ccc(C(=O)NC2=NC(c3cccc(F)c3)CC(=O)N2)cc1 (configuration not stated) | inactive: 15.2%
Cc1cc(C)c2oc(C(=O)NCCc3ccc(S(N)(=O)=O)cc3)cc(=O)c2c1 | inactive: 9.01%
COc1ccc(Cl)cc1NC(=O)C(=O)NCc1ccc(Cl)cc1 | inactive: -9.24%
COc1ccc2c(c1)c1c(c(=O)n(Cc3ccccc3)c(=O)n1CC(=O)Nc1ccccc1F)n2C | inactive: 3.95%
CCOC(=O)c1cnc(NCc2ccc(OC)cc2OC)c2ccccc12 | inactive: 0.265%
CCOc1ccccc1NC(=O)N1CC(C)Oc2ccc(Cl)cc21 (configuration not stated) | inactive: -10.7%
Cc1ccc(OC(=O)CSc2nnc(-c3ccc4c(c3)OCO4)o2)c(C)c1 | inactive: 9.34%
Cc1cccn2c(=O)cc(COc3ccc(NC(=O)COc4ccc(F)cc4)cc3)nc12 | inactive: 5.76%

SMILES | activity change, negative = cytotoxicity
COc1cccc(NC(=O)CN2C=NS(=O)(=O)c3ccccc32)c1 | inactive: 2.68%
Cc1ccc(C(=O)c2sc(Nc3ccc(F)cc3)c(C#N)c2N)cc1 | inactive: -7.96%
COc1cccc(-c2nc3c(c(SCC(=O)Nc4cccc(C)c4C)n2)Cc2c(CO)cnc(C)c2O3)c1 | inactive: 4.08%
Cc1cccc(CCn2c(=O)c3ccccc3n(Cc3ccccc3C)c2=O)c1 | inactive: 7.61%
CCCCNC(=O)c1ccc2c(c1)NC(=O)C(C(C)C)N2 (configuration not stated) | inactive: 16.1%
COc1ccc2c(c1)c1c(c(=O)n(-c3ccc(F)c(Cl)c3)c(=O)n1Cc1ccccc1F)n2C | inactive: -21.3%
CCOC(=O)C1=C(CN(CC)Cc2ccccc2)NC(=O)NC1c1ccc(OC)cc1 (configuration not stated) | inactive: 7.94%
N#Cc1c(-n2ncnc2-c2cccc(Cl)c2)sc2c1CCCCC2 | inactive: 4.05%
CCOc1cccc(-c2nc3ccccc3c(=O)o2)c1 | inactive: -21.8%
COc1ccccc1NC(=O)C(=O)c1cc(C)n(-c2cc(C)cc(C)c2)c1C | inactive: 1.43%
Nc1nc(N)c(S(=O)(=O)c2ccccc2)c(Nc2ccccc2)n1 | inactive: -1.97%
COc1cccc(C2C(=O)N(C3CCCCC3)CC(=O)N2CCc2ccc(OC)c(OC)c2)c1 (configuration not stated) | inactive: 9.54%
CCc1ccc(-n2c(=O)c3sc4ccccc4c3n(CC(=O)NC3CCCC3)c2=O)cc1 | inactive: 6.49%
COc1cc(OC)c(NC(=O)CCc2nc(C3=CCN(Cc4cccc(Cl)c4)CC3)no2)cc1Cl | inactive: 21.2%
Cc1nc2nc(CNC(=O)OC(C)(C)C)nn2c(C)c1CCC(=O)NCc1ccccc1Cl | inactive: -7.14%
Cc1ccc(NC(=O)c2oc3ccccc3c2NC(=O)C2CCCCC2)cc1 | inactive: -0.959%
CCc1ccc2c(c1)c(=O)c(S(=O)(=O)c1ccc(F)cc1)cn2CC(=O)Nc1ccccc1OC | inactive: 1.61%
CCOC(=O)C1CCN(C(=O)c2ccc(C)c(NC(=O)c3nsc4ccccc34)c2)CC1 | inactive: 4.22%
CCC(=O)N1c2ccc(S(=O)(=O)CCC(=O)NCc3ccc(OC)cc3)cc2CC1C (configuration not stated) | inactive: 6.58%
Cc1ccc(NC(=O)C2CCC(CNS(=O)(=O)c3cccs3)CC2)cc1C (configuration not stated) | inactive: 7.84%
COc1ccc(NC(=O)COCc2cc(-c3ccco3)on2)cc1Cl | inactive: 0.239%

SMILES | activity change, negative = cytotoxicity
O=C(Nc1ccc(F)c(F)c1)c1ccc(=O)n(Cc2ccc(F)cc2)c1 | inactive: -13.2%
CC1=C(C(=O)Nc2cc(C)cc(C)c2)C2(CCCCC2)OC1=O | inactive: 8.58%
CC(C)c1ccc(S(=O)(=O)NCc2nc3cccnc3n2Cc2ccc(F)cc2)cc1 | inactive: 0.315%
CCc1cccc(C)c1Nc1c(-c2cccs2)nc2ncccn12 | inactive: -0.336%
O=S(=O)(Nc1ccc(OC(F)(F)F)cc1)c1ccc(N2CCCCS2(=O)=O)cc1 | inactive: -11.8%
O=C(Cn1c(=O)c2ccccc2n(CC(=O)Nc2ccccc2F)c1=O)NCCc1ccccc1 | inactive: 0.0785%
COC(=O)c1ccc(NC(=O)c2c(-c3ccccc3)c(-c3ccccc3)nn(C)c2=O)cc1 | inactive: 17%
CCOC(=O)Cc1ccc(NC(=O)Nc2nnc(N3CCCCC3C)s2)cc1 (configuration not stated) | inactive: -2.51%
CCc1ccc(Nc2nc(-c3cc4cccc(OC)c4oc3=O)c(CC)s2)cc1 | inactive: -25.4%
CCCN(C(=O)c1cc2c(s1)-c1ccccc1OC2)c1ccc(C(C)C)cc1 | inactive: 21.1%
Cc1cccc(OC(=O)c2snnc2C)c1C | inactive: -1.24%
CCC(=O)N1CCc2cc(Br)cc(S(=O)(=O)NCCc3ccc(C)cc3)c21 | inactive: 1.8%
CCOc1ccc(-c2cc3nc(C4CCN(C(=O)OC(C)(C)C)CC4)c(C(=O)Nc4cccc(C(F)(F)F)c4)cn3n2)cc1 | inactive: 3.39%
COc1ccc(Br)cc1CNCc1c(C(=O)O)c(C)n(Cc2ccccc2C)c1C | inactive: -5.23%
COc1ccc(-c2nc3scc(CCNS(=O)(=O)c4cccs4)n3n2)cc1 | inactive: -29%
COc1cc(Cl)c(NS(=O)(=O)c2cc3[nH]c(=O)c(=O)[nH]c3cc2C)c(OC)c1 | inactive: 11.3%
Cc1ccc(-n2c(=O)c3c4c(sc3n(CC(=O)C(C)(C)C)c2=O)CCCCC4)cc1C | inactive: 7.78%
Cc1cc2c(cc1S(=O)(=O)CCC(=O)N1CCN(c3ccccc3)CC1)OCC(=O)N2 | inactive: 5.78%
CCCCCOC(=O)CSc1nc2sc3c(c2c(=O)n1Cc1ccccc1)CC(C)(CC)OC3 (configuration not stated) | inactive: 10.4%
Cc1c(Cl)cccc1-n1ncc(C(=O)NC2CCCC2)c1C1CCN(C(=O)OC(C)(C)C)CC1 | inactive: 4.68%
